Reference: publication PMC4538817
These are yes or no findings as the source states them, for the method shown. Binding seen in cells or lysates may run through a third protein. Some results given as binding are weak or reduced against the parent protein; the word gives no strength. Where a sequence is shown, tags or fusion partners need not be part of it.

Sequences of proteins named here, by UniProt entry; tags and fusion partners are left off.
UniProt Q9Y6K9: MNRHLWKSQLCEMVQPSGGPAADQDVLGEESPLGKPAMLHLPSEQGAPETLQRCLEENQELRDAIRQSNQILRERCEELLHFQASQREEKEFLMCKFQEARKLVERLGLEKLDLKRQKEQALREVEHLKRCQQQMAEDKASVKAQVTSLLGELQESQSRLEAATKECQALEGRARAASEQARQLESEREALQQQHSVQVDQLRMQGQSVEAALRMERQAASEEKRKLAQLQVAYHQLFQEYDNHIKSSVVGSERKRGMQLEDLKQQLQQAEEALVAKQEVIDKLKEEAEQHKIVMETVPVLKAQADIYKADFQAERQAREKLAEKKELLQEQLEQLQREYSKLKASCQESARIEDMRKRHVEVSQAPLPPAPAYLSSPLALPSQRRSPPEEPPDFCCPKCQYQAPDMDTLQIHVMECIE

Molecular target: T1, Flag-FKBP51 (pRK5 FKBP51 WT) (UniProt Q13451)
T1 sequence: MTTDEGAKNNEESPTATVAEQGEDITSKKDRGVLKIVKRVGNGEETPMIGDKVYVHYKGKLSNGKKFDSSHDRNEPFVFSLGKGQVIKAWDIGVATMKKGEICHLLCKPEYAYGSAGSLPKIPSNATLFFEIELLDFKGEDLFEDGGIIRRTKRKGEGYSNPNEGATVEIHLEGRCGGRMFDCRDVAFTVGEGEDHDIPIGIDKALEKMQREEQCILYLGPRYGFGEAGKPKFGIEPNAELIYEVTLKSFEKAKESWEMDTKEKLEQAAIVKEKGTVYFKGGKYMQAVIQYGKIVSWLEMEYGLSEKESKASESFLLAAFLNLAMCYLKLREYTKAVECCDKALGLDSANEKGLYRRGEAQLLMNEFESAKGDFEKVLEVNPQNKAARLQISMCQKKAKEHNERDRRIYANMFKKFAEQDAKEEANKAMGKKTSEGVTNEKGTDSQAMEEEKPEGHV
Assay: co-IP; HEK293T (legends: HEK293) co-transfected with Flag-FKBP51 or its mutants and HA-tagged partners; anti-Flag immunoprecipitation, blot with anti-HA, anti-TRAF2 or anti-IKKα/β; RIPA buffer; with or without FK506 (Figure 3B); the precipitating antibody is not told for Figures 3B and 4B

- binding: binds
Substance: HA-tagged human IKKγ (from UniProt Q9Y6K9 1-419)
